The campaign covered roughly 410,000 compounds. About 6,400 (1.6%) were called active. The inconclusive results got no clear call from the source; some entries with a clear call stand among them for comparison. Calls follow the shape of the dose curve; as a rule, active = well fitted inhibition curve with a large enough effect; inconclusive = small, poorly fitted or top-dose-only effect; inactive = no such curve, though single readings can be large or run the other way. Potencies of inconclusive entries are left out as doubtful fits.
Molecular target: Glucagon-like peptide 1 receptor (Homo sapiens) (UniProt P43220)
UniProt P43220, sequence (P43220 whole entry, looked up): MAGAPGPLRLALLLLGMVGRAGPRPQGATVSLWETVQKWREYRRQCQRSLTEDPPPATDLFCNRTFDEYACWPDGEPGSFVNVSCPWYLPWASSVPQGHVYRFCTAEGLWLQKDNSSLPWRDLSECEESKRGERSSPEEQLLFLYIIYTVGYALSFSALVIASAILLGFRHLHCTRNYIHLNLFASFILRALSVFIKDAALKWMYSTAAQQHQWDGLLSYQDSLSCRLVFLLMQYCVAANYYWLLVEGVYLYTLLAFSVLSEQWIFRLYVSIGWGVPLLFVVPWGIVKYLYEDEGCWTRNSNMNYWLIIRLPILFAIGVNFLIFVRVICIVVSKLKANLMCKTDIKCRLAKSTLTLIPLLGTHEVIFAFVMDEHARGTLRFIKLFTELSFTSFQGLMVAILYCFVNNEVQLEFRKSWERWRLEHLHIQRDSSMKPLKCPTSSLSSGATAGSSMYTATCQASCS
Assay: qHTS of GLP-1 Receptor Inverse Agonists (Inhibition Mode); also: nearly all actives have a fitted effect of over 55% in size
Details: HEK293 GLP-1R CRE-luciferase, luminescence, 24 h, GLP-1R form is constitutively active; activity change, negative = inhibition: at 38.3 µM (top of the series) unless noted
Outline: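 Readout was luciferase luminescence, measured 12 min after detection reagent at room temperature. Beforehand, GLP-1R reporter HEK293 cells had sat 12 h, then received compounds for 24 hr at 37 deg C.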
% is scaled to controls: 0 for no effect and ±100 for the full control effect; potency is read from the fitted curve at half-maximal effect; tags tell the direction and shape of the fitted curve.

Structure (SMILES) | activity change, negative = inhibition | Potency
CCCCN(Cc1cc2cc(C)ccc2[nH]c1=O)C(=O)c1cccc(Cl)c1 | inactive: 12% | –
CC(C)Cc1ccc(CN2CCCC(NC(=O)CCN3CCCO3)C2)cc1 (configuration not stated) | – | inconclusive [inhibitor, single point]
C=CCN(Cc1cccs1)C(=O)COc1ccc2c(c1)OCO2 | – | inconclusive [inhibitor, partial curve]
COc1ccc(S(=O)(=O)c2c(Nc3cccc(Cl)c3)sc(C(=O)c3ccccc3)c2N)cc1 | – | inconclusive [inhibitor, single point]
COc1ccc(-c2csc(NCCc3nc4cc(Cl)c(Cl)cc4n3CCCO)n2)cc1 | – | inconclusive [inhibitor, partial curve, poor fit]
COc1ccccc1NS(=O)(=O)c1cc(C(=O)N2CCCCCCC2)ccc1C | – | inconclusive [inhibitor, single point]
CCOC(=O)C1=CN(Cc2ccco2)S(=O)(=O)NC1c1ccc(C(F)(F)F)cc1 (configuration not stated) | – | inconclusive [inhibitor, single point]
CN(C)S(=O)(=O)c1cccc(NC(=O)CNc2cccc(S(=O)(=O)N3CCCCC3)c2)c1 | – | inconclusive [inhibitor, partial curve, poor fit]
CC1(C)CC(NC(=S)NC(=O)c2cc(Br)ccc2Cl)CC(C)(C)N1 | – | inconclusive [inhibitor, partial curve, poor fit]
COC(=O)[C@]12CCCCC=C1N(CCc1ccc(OC)c(OC)c1)C(=O)[C@H](CC(=O)NCC13CC4CC(CC(C4)C1)C3)C2 | – | inconclusive [inhibitor, single point]
Cc1noc(C)c1COC(=O)c1cccc(S(=O)(=O)N2CCOCC2)c1 | inactive: 1.85% | –
CCC(Oc1ccccc1)C(=O)N(Cc1ccccc1)c1ccccn1 (configuration not stated) | – | inconclusive [inhibitor, single point]
Cc1occc1C(=O)NC(C)C12CC3CC(CC(C3)C1)C2 (configuration not stated) | – | inconclusive [inhibitor, partial curve, poor fit]
Cc1ccc(NS(=O)(=O)c2cc(C(=O)NCCSC3CCCCC3)ccc2C)cc1 | – | inconclusive [inhibitor, partial curve, poor fit]
CCOC(=O)c1c(C)n(-c2ccc(C)cc2)c2ccc(OCC(O)CNCCCO)cc12 (configuration not stated) | – | inconclusive [inhibitor, partial curve, poor fit]
c1ccc(CCn2nnnc2C(c2cccnc2)N2CCN(c3nc4ccccc4s3)CC2)cc1 (configuration not stated) | – | inconclusive [inhibitor, single point]
COc1ccc(C2(SCC(N)C(=O)O)c3ccccc3-c3ccccc32)cc1 (configuration not stated) | – | inconclusive [inhibitor, partial curve, poor fit]
CN(C)C(=O)C1C2NC(=S)N(c3ccc(Cl)cc3)C1(C)Oc1ccc(Cl)cc12 (configuration not stated) | – | inconclusive [inhibitor, full curve]
Cc1cccc(-c2nnc(SCC(=O)N3c4ccccc4CCc4ccccc43)n2C)c1 | – | inconclusive [inhibitor, partial curve, poor fit]
COc1ccccc1[C@@]1(C)ON(c2ccccc2C(F)(F)F)C1=O | – | inconclusive [inhibitor, partial curve, poor fit]
Cc1ccc(C(=O)CSc2nc(C)cc(C)c2C(=O)Nc2cccc(C)c2)cc1 | – | inconclusive [inhibitor, single point]

Structure (SMILES) | activity change, negative = inhibition | Potency
c1ccc(N2CCN(c3nnnn3-c3ccccc3)CC2)cc1 | inactive: 16.9% | –
CC(C)(C)c1cc(NC(=O)CCl)n(-c2ccccc2)n1 | – | inconclusive [inhibitor, single point]
COc1cccc(OC)c1C(=O)Nc1ccccc1Sc1ccccc1 | – | inconclusive [inhibitor, single point]
Cc1ccc(Oc2ccccc2NC(=O)CSCC(=O)Nc2cc(C)on2)cc1 | – | inconclusive [inhibitor, partial curve, poor fit]
Cc1nn2c(N3CCCC3)c3c(nc2c1-c1ccccc1)CCC3 | inactive: 10.6% | –
CCOc1cc(CNCC(C)C)cc(Cl)c1OCc1ccccc1 | – | inconclusive [inhibitor, partial curve, poor fit]
Cc1ccccc1N(CC(=O)NC1CCCC1)C(=O)c1oc(C(C)(C)C)cc1C | – | inconclusive [inhibitor, partial curve, poor fit]
COc1cc(OC)cc(-c2c(C#Cc3ccsc3)c3cc(-c4ccc(CN5CCOCC5)cc4)ccc3n2C)c1 | inactive: -24.4% | –
COc1cc(CN(C)CC2CCCN(CCc3ccc(F)cc3)C2)c(Cl)cc1O (configuration not stated) | – | inconclusive [inhibitor, partial curve, poor fit]
COc1cc2c(cc1OC)CN(C(=S)Nc1cccc(Cl)c1C)CC2 | – | inconclusive [inhibitor, partial curve, poor fit]
N#Cc1c(NC(=O)c2ccc(Cn3cc(Br)cn3)o2)sc2c1CCCCCC2 | – | inconclusive [inhibitor, single point]
CNC(=O)c1c(NC(=O)c2ccc(S(=O)(=O)N3CCCCC3)cc2)sc2c1CCN(C(C)C)C2 | – | inconclusive [inhibitor, full curve, poor fit]
O=C(c1cccc(Cl)c1)N1CCN(CCCc2ccccc2)CC1 | – | inconclusive [inhibitor, full curve]
O=[N+]([O-])/C=C/c1cn(Cc2ccccc2)c2ccccc12 | – | inconclusive [inhibitor, single point]
CCOC(=O)CN(C(=O)CSc1nnc2c(n1)[nH]c1ccccc12)c1ccccc1 | inactive: -0.329% | –
C[C@@H]1CN([C@@H](C)CO)C(=O)c2cc(Br)cnc2O[C@H]1CN(C)S(=O)(=O)c1ccccc1 | – | inconclusive [inhibitor, single point]
COc1ccc(C(=O)C2CCCN(Cc3c(F)ccc(F)c3F)C2)c(OC)c1 (configuration not stated) | – | inconclusive [inhibitor, partial curve, poor fit]
COc1ccc(OC)c(CCNC(=O)c2nc(-c3ccc(Cl)cc3)n3c2CCCCC3)c1 | – | inconclusive [inhibitor, partial curve, poor fit]
O=C(CCC(=O)c1ccc(Br)cc1)Nc1cccc(C(F)(F)F)c1 | – | inconclusive [inhibitor, partial curve, poor fit]
Cc1c(C)n(Cc2ccc(Cl)cc2)c2ccc(C(=O)N3CCN(c4ccccc4F)CC3)cc12 | – | inconclusive [inhibitor, single point]
O=C(/C=C/c1ccc(F)cc1)Nc1cccc(S(=O)(=O)Nc2cccc(C(F)(F)F)c2)c1 | inactive: -16.8% | –

Structure (SMILES) | activity change, negative = inhibition | Potency
Cc1ccc(C)c(N2CCN(C(=S)Nc3ccc4nc(N5CCN(C)CC5)cc(C)c4c3)CC2)c1 | – | active: 2.51 µM
Cc1ccc(NC(=O)c2ccc3c(c2)NC(=O)c2ccccc2S3)c(Cl)c1 | – | inconclusive [inhibitor, full curve, poor fit]
Cc1nn(CC(=O)NC2CC2)c(=O)c2cc3cc(F)ccc3n12 | inactive: -4.08% | –
Cc1nc(-c2ccc(Cl)cc2)sc1CCNC(=O)C(=O)Nc1ccc2c(c1)OCO2 | inactive: 6.26% | –
O=C(CSc1nncs1)N1c2ccccc2Sc2ccccc21 | – | inconclusive [inhibitor, single point]
CC(=O)Nc1ccc(OCC(O)Cn2c3ccccc3c3ccccc32)c(C)c1 (configuration not stated) | inactive: 0% | –
CC(C(=O)Nc1ccc(F)cc1Cl)N(C)CCOc1ccccc1 (configuration not stated) | – | inconclusive [inhibitor, single point]
CCOc1ccccc1Nc1sc(C(=O)c2ccccc2)c(N)c1C(=O)Nc1ccc(F)cc1 | inactive: -17.2% | –
CCc1cccc(NC(=O)CSc2nc(C)cs2)c1 | – | inconclusive [inhibitor, single point]
O=C(Nc1cccc2ncccc12)c1cc([N+](=O)[O-])ccc1Cl | – | inconclusive [inhibitor, partial curve]
Cc1ccc(C=O)c([B-](F)(F)F)c1 | inactive: -30.1% | –
CN1CCN(c2ccc(NC(=O)c3ccco3)cc2Cl)CC1 | – | inconclusive [inhibitor, single point]
CCN(CC)S(=O)(=O)c1c(OC)cc(C)c(Cl)c1C | – | inconclusive [inhibitor, single point]
Cc1ccc(NS(=O)(=O)c2ccc(-c3csc(C)n3)s2)c(C)c1 | – | inconclusive [inhibitor, single point]
CCN1C(=NCc2ccc(OC)cc2)N[C@@H](c2ccccc2)C(C(=O)OC)=C1C | inactive: -6.51% | –
O=S(=O)(Nc1ncccn1)c1ccc(NC(=S)N2CCN(c3cccc(C(F)(F)F)c3)CC2)cc1 | – | inconclusive [inhibitor, single point]
Cc1ccccc1N1CCN(C2=NC(=O)/C(=C\c3cccs3)S2)CC1 | – | inconclusive [inhibitor, single point]
Cc1cccc(C)c1NC(=O)CN(C)C(=O)c1ccc(-c2cccc(C(F)(F)F)c2)o1 | – | inconclusive [inhibitor, single point]
CC(C)c1ccccc1NC(=O)C1CCCN(C(=O)c2ccc(Cl)cc2)C1 (configuration not stated) | – | inconclusive [inhibitor, single point]
COC(=O)[C@]12CCCCC=C1N(Cc1ccccc1)C(=O)[C@H](CC(=O)NCc1ccccc1)C2 | – | inconclusive [inhibitor, single point]

Reference: PubChem BioAssay AID624417 (National Center for Advancing Translational Sciences (NCATS), 2012)
